The values below come from the supplement of paper PMC11417369.

± gives the standard deviation of the averaged measurements. The list shows a part of the results.

The test system of this assay is PfAP2-LT AP2 domain (GST-tagged). Nature of the assay: gcPBM binding intensity (ln(normalized median fluorescence intensity)); higher = stronger DNA binding. The method in brief:
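An Agilent 4 × 180k array carrying primer-extended double-stranded 36-bp intergenic genomic probes and negative controls received GST-tagged P. falciparum DNA-binding domains expressed in E. coli, about 25 μg on average, for 1 h. The binding buffer contained 1× PBS, 1% milk, 0.2 mg/ml BSA, 0.5% salmon testes DNA and 0.03% Triton X-100. Binding intensity is the top Masliner-normalised natural-log median intensity across replicate spots of either probe orientation, read after Alexa488 anti-GST antibody staining and a 488 nm scan.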
In the case of “GTAAATATATAAACATGTACATATATAAATATATAA [XGTACX_site7262]”, the “gcPBM binding intensity (ln)” value was found to be 8.95 ± 0.4. For “TGGCAAAATAGGCACACACACATATACCTATAGATT [CACACA_site7168]”, the “gcPBM binding intensity (ln)” value stood at 9.66 ± 0.5. Turning to “GATAATTTTTTTCTCACACACAAATATTTTAATCAT [CACACA_site3666]”, the “gcPBM binding intensity (ln)” value worked out at 9.01 ± 0.49. Consider “AAATATATTATATCATATATTAAAGCATATATTAAA [CACACA_negctrl_site1624]”, for which the “gcPBM binding intensity (ln)” value is 8.43 ± 0.42. Take “TTCTTTTTATTTATATTTTCCCCTCTCTATAGCTAT [XGTACX_negctrl_site102]”: the “gcPBM binding intensity (ln)” value amounted to 8.71 ± 0.7. “CAAAATAATAATAAAAGTACTAACATATTTATGAAA [XGTACX_site6078]”: the “gcPBM binding intensity (ln)” value is 8.68 ± 0.52. As for “ATAATTCAAAAAAACACACAAATTACAAAATAAACT [CACACA_site6264]”, the “gcPBM binding intensity (ln)” value came out at 9.02 ± 0.36. Next, “AAAATATATACACAAACATGCATATAATAAATAAAT [TGCATGCA_site711]”: 8.99 ± 0.35. As to “ATATTTCTGTGTGGATGTACATTATTAGCAGGCTTT [XGTACX_site6496]”, the “gcPBM binding intensity (ln)” value was determined as 8.97 ± 0.41. Take “CATTATGTCGTAAATACACACATACCTATACATACA [CACACA_site6763]”: the “gcPBM binding intensity (ln)” value is 9.11 ± 0.32. For “TATACACATATATAAACACACAAAAAAAAAAAAAAA [CACACA_site7041]”, the “gcPBM binding intensity (ln)” value was found to be 8.88 ± 0.49.

Take “CCATAAGATATATGTAGTACATATTATATATATATA [XGTACX_site2104]”: the “gcPBM binding intensity (ln)” value came to 8.96 ± 0.33.

Regarding “AATATATAGCTAAAAACACACAAATATATACGCATA [CACACA_site3608]”, the “gcPBM binding intensity (ln)” value was found to be 9.12 ± 0.39. For “CTTAAAAAAACCTTAACACACATAAACTCTAATTTA [CACACA_site7430]”, the “gcPBM binding intensity (ln)” value was found to be 8.66 ± 0.4. As for “GTTTACATTAAAAATTGTACTCTGTATGAATAATAT [XGTACX_site80]”, the “gcPBM binding intensity (ln)” value worked out at 8.6 ± 0.49. To “ATTTCATTTTATAAGTGTACAATAAAAAAAAAAAAA [XGTACX_site8677]” belongs 8.36 ± 0.42. Consider “AAATTTGATATAAAAAGTACAAAATGTTCCTCAGCT [XGTACX_site809]”, for which the “gcPBM binding intensity (ln)” value was found to be 8.78 ± 0.28. Next, “GATGATACAAAGTAATGTACATAAATACACATATTG [XGTACX_site3177]”: 9.03 ± 0.44. Take “ATATAAACAGAAAATAGTACTTTATATTGAAAAAAA [XGTACX_site7183]”: the “gcPBM binding intensity (ln)” value turned out to be 8.53 ± 0.62. “CTCTTCTATATATAAGCATGCATTCATAATAATTTA [TGCATGCA_site679]”: the “gcPBM binding intensity (ln)” value was 8.62 ± 0.4. With “TAGATACTTGTCATGGGTACATATCGTACCTTTTGG [XGTACX_site6781]”, the “gcPBM binding intensity (ln)” value stood at 8.78 ± 0.4. With “TTTATATGATATATTACACACAAAAAAAAAAAAAAA [CACACA_site3549]”, the “gcPBM binding intensity (ln)” value was found to be 8.72 ± 0.38. To “GCTTAATGTCATATATCACACATGAAAATATATATA [CACACA_site5089]” belongs 8.81 ± 0.38. “TAAATATATTAATACACACACGATATGTACAAAAAA [CACACA_site540]”: the “gcPBM binding intensity (ln)” value worked out at 9.26 ± 0.38. For the sequence “TTTTGATTTCCTATTGCACACTTTTTTTAAGTTTAT [CACACA_site1056]”, the “gcPBM binding intensity (ln)” value was 8.98 ± 0.47. For the sequence “TGCATATACGCAAGCACACATATATATATATATATA [CACACA_site1069]”, the “gcPBM binding intensity (ln)” value turned out to be 10.1 ± 0.4.

“TATATATATATATAATGTACATATAATATATTTATT [XGTACX_site7892]”: the “gcPBM binding intensity (ln)” value is 8.78 ± 0.27. As to “ACAGCTACCAGATACTGTACTTTTCTCCAGACTGCA [XGTACX_site2541]”, the “gcPBM binding intensity (ln)” value turned out to be 8.85 ± 0.51.

Consider “AATTTATAATTATAGAGTACATATTTTTAATATATA [XGTACX_site2566]”, for which the “gcPBM binding intensity (ln)” value was determined as 8.31 ± 0.48.

Turning to “GTAATAATTTTTTGTAGTACACAAAAATTCATATTT [XGTACX_site2699]”, the “gcPBM binding intensity (ln)” value was found to be 8.64 ± 0.39. As for “ATATACACTTAATTTTTTATAAAAAAAAATTTATAT [CACACA_negctrl_site498]”, the “gcPBM binding intensity (ln)” value worked out at 8.38 ± 0.45. On to “ATATACATAATCTTCTTGCACTTTTTTTTTTTTTTT [GTGCAC_site9410]”, for which the “gcPBM binding intensity (ln)” value was 8.79 ± 0.52. As to “TATATTTTGTTCTTTCCACACACAAATACATATATT [CACACA_site9348]”, the “gcPBM binding intensity (ln)” value was determined as 9.25 ± 0.45.

On to “ATGTGATATAAGTACACACACATATGTATTTATAAC [CACACA_site6942]”, for which the “gcPBM binding intensity (ln)” value turned out to be 9.57 ± 0.35. Consider “ATTAATTTTAATAAAGGTACACGTAGTTTTTTATTA [XGTACX_site7868]”, for which the “gcPBM binding intensity (ln)” value came out at 8.34 ± 0.32. Take “TTAAAATTAAAAATGCGTACACATATACATAAAAAA [XGTACX_site1915]”: the “gcPBM binding intensity (ln)” value is 8.78 ± 0.52. Regarding “TATATATATATATATTGTACTGAACGTTTTTTTTTG [XGTACX_site8060]”, the “gcPBM binding intensity (ln)” value was determined as 9.43 ± 0.2. As for “AACAAAACCTTATATGTACACACATATACATCACAC [CACACA_site9037]”, the “gcPBM binding intensity (ln)” value came out at 9.34 ± 0.33. Next, “TATATAATATATATATGTACATATATATATGTTTTT [XGTACX_site3347]”: 8.76 ± 0.42; “TATACATAAAACAGTTCACACATTGTATGAATATAT [CACACA_site4751]”: 9.05 ± 0.43.

“TACAAACACCCATATACACACAAAAAAAAAATAAAA [CACACA_site5421]”: the “gcPBM binding intensity (ln)” value is 9.24 ± 0.49.

On to “AGAAAAACTTATATGATACACACGATAAACAAAATA [CACACA_site1038]”, for which the “gcPBM binding intensity (ln)” value came to 8.96 ± 0.46. To “TATATCTGTTTATATTGTACACATATATATATATAT [XGTACX_site714]” belongs 9.2 ± 0.33; to “GGCAATACATAATAATGTACATAATTATATAATATT [XGTACX_site3739]”, 8.92 ± 0.38; to “TTGTTTCTTTTTTTTTGTACATATATATTGTATATT [XGTACX_site7602]”, 9.09 ± 0.36. Regarding “AATTTTTCAAATTAATGTACTTGTTATAAATTGTAA [XGTACX_site5428]”, the “gcPBM binding intensity (ln)” value came out at 8.34 ± 0.42. To “GGACAACAAACAAACACACACAAAAAAAAAATAAAA [CACACA_site3791]” belongs 9.6 ± 0.71.

For “TACGTATTTTAATATTTACACACTTATTTTTTATAT [CACACA_site7924]”, the “gcPBM binding intensity (ln)” value came to 8.97 ± 0.46.

Regarding “TAGAACAAATAAAACACACACATATAAATATAGATG [CACACA_site7325]”, the “gcPBM binding intensity (ln)” value was determined as 9.42 ± 0.42. On to “GATATTATGTGTTTGGTATTTTTTGATGTTGGTAGG [XGTACX_negctrl_site563]”, for which the “gcPBM binding intensity (ln)” value was found to be 9.13 ± 0.44. Next, “TCTTTCTAAAGATGTAGTACAAAATAAATATAATAT [XGTACX_site6564]”: 8.58 ± 0.42. “AAGGCAAACAAACACACACACATATATACATATATA [CACACA_site2122]”: the “gcPBM binding intensity (ln)” value worked out at 9.87 ± 0.36.

For “TTTATACAAACAACTTTATATTAATGTTTAACGGAG [GTGCAC_negctrl_site396]”, the “gcPBM binding intensity (ln)” value worked out at 8.35 ± 0.38. On to “TTATCACACCTTTTTTGTACGAAATAAAAAAAAAAA [XGTACX_site5564]”, for which the “gcPBM binding intensity (ln)” value was determined as 8.18 ± 0.27. As to “TAATATGCTCATGTAACACACATTTGCATATTTTTC [CACACA_site1357]”, the “gcPBM binding intensity (ln)” value was determined as 9.09 ± 0.35. Consider “GTGCAAAATATTTTTACACACAAATTCTTACAACAG [CACACA_site7556]”, for which the “gcPBM binding intensity (ln)” value was found to be 9.03 ± 0.43.
